Assay results reported in publication PMC4336329 (PLoS ONE, 2015).
Hit rate of the full screen: of about 310,000 compounds, about 14,000 (4.5%) showed an effect of 50% or more. The effect is printed as a negative number. Some of the results follow.

What follows are compounds tested against human ether-à-go-go-related gene (hERG) potassium channel (human, UniProt Q12809) (assay: primary screen, population patch clamp on CHO cells stably expressing hERG).
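Further: peak tail current of the secondary pulse compared with the same well before compound.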

human ether-à-go-go-related gene (hERG) potassium channel, sequence (Q12809 whole entry, looked up): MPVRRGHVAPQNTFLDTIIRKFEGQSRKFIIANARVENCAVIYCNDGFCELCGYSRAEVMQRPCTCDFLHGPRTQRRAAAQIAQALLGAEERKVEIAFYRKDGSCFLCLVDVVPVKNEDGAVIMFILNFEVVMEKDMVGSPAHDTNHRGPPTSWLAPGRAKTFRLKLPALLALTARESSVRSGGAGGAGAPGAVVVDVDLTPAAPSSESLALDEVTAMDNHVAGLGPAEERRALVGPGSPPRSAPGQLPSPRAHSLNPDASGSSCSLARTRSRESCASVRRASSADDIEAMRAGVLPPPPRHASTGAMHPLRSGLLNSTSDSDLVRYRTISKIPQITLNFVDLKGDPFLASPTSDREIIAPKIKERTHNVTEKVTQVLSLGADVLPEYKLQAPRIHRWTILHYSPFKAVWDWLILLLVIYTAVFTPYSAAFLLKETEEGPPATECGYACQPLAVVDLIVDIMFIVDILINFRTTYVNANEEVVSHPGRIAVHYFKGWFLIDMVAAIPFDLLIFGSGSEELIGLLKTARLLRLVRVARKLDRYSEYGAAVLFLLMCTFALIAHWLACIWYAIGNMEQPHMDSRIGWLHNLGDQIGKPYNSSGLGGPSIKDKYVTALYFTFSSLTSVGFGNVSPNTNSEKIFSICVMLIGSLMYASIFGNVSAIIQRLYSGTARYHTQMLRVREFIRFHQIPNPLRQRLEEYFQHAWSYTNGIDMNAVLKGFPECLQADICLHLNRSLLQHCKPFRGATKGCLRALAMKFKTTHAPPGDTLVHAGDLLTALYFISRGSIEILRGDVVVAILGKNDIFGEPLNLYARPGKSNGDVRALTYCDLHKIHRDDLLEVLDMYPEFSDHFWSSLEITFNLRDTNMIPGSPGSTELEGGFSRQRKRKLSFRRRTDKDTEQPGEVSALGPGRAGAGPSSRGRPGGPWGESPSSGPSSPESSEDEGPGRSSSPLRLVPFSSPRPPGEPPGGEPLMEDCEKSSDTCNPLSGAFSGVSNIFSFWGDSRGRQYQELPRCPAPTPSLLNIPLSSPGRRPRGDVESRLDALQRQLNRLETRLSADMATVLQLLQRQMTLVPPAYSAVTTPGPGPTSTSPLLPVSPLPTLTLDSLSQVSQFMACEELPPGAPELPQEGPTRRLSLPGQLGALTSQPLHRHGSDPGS

Compound | hERG current change (%, negative = inhibition) at 10uM
CCC(CC)N1CCN(S(=O)(=O)c2ccc(OC)cc2)CC1.O=C(O)C(=O)O | 11.5%
COC(=O)Nc1ccc(S(=O)(=O)Nc2ccc(O)cc2)cc1 | -3.18%
CC(NC(=O)c1ccc(S(C)(=O)=O)cc1)c1cccc2ccccc12 (stereo not drawn) | -5.61%
Cc1cc(NC(=O)CSCC(=O)OC(C)C(=O)c2cc(C)c(C)cc2C)no1 (stereo not drawn) | 1.53%
Nc1c(N)c2ccccc2oc1=O | 0.889%
Cc1ccc(OCc2cc(C(=O)N(CCO)Cc3cccs3)no2)cc1C | -9.81%
NC(=O)c1ccc(C(F)(F)F)n(Cc2c(Cl)cccc2Cl)c1=O | 25.1%
Cc1cc(C)nc(Nc2n[nH]c(COc3ccc4ccccc4c3)n2)n1 | 9.69%
CCn1nc(C(=O)Nc2cccc(S(=O)(=O)N3CCCC3)c2)c2ccccc2c1=O | -22.3%
Cc1c(C(=O)O)cccc1-c1ccc(/C=N/Nc2ccc(Br)cc2)o1 | 30.2%
CC(=O)c1ccc(NC(=S)Nc2ccc3[nH]c(=O)[nH]c3c2)cc1 | 17%
CCOC(=O)CC1C(=O)NCCN1Cc1cccc(OC)c1 (stereo not drawn) | 12%
O=C(O)c1cccc(S(=O)(=O)N2CCc3ccccc3C2)c1 | 12.6%
O=[N+]([O-])c1ccc(/C=N/Nc2ncccc2[N+](=O)[O-])s1 | 7.1%
CC(C)OC(=O)C1C(=O)CC(C)(O)C(C(=O)OC(C)C)C1c1cccnc1 (stereo not drawn) | 35.1%
O=C(COC(=O)c1cc2ccccc2cc1O)NC(=O)NCc1ccco1 | 23.1%
O=C(NCC(c1cccnc1)N1CCOCC1)C1CCCCC1 (stereo not drawn) | 5%
CS(=O)(=O)N1CCN(C(=O)Cc2ccccc2)CC1 | 12.8%
Cc1ccc(-n2c(C)cc(/C=C3/C(=N)N4C(c5ccccc5)=CSC4=NC3=O)c2C)cc1 | 12.7%

Compound | hERG current change (%, negative = inhibition) at 10uM
CCOc1cc2[nH]c(=S)n(CCC(=O)N3CCc4ccccc4C3)c(=O)c2cc1OCC | 3.34%
O=C(Cc1coc2ccc3ccccc3c12)N1CCc2ccccc21 | 17.8%
CCOC(=O)C1C(c2ccc(OC)cc2)N(C)OC1(O)C(F)(F)F (stereo not drawn) | 8.45%
COc1ccc(-c2ccc(OC)c([C@H]3[C@H]4C=CC[C@@H](C)[C@@H]4C(=O)N3Cc3ccccc3)c2)cc1OC | 20.6%
COc1ccc(S(=O)(=O)N2CCN(C(=O)Nc3ccccc3OC)CC2)cc1 | -8.69%
CCn1ncc(S(=O)(=O)NCc2ccco2)c1C | -0.626%
CN(C)c1cc(-c2ccccc2)nc(-c2ccccc2)n1 | 14%
O=C(CN1C(=O)NC2(CCCC2)C1=O)OCCOc1cccc(Cl)c1 | -7.43%
O=C(O)C(=O)/C(=C\c1ccsc1)c1ccc2ccccc2n1 | 15.1%
Cl.O=C1c2ccccc2-c2cccnc21 | 21.4%
Cc1ccccc1OCCN1CCC(Cc2ccccc2)CC1.O=C(O)C(=O)O | -58.5%
CCOc1ccc(OCCC(=O)NNC(=O)c2ccccc2Cl)cc1 | -4.73%
CCOC(=O)N1CCN(C(=O)c2cc3c(-c4cccc(OC)c4)nn(C)c3s2)CC1 | -35.6%
COc1ccc(O)c(/C=N\NC(=O)CCn2nnc3ccccc32)c1 | -14.7%
O=C(O)/C=C/C(=O)OC1CC2CCC1C2 (stereo not drawn) | 14%
O=C(CSc1nc2ccccc2c(=O)n1CC1CCCO1)NCc1ccccc1 (stereo not drawn) | -11%
Cn1nc(C(F)(F)F)c(-c2cccc(C(F)(F)F)c2)c1NC(=O)c1nccnc1C(=O)O | 3.44%
CN(C)S(=O)(=O)c1ccc(C(=O)Nc2ccccc2SCCC#N)cc1 | -12.4%
COc1ccc(NC(=O)c2cccc(F)c2)cc1Cl | 1.72%

Compound | hERG current change (%, negative = inhibition) at 10uM
CC1CN(C(=O)COC(=O)Cc2c(F)cccc2Cl)CC(C)O1 (stereo not drawn) | 6.12%
COc1cc(/C=C2\SC(=Nc3ccccc3)NC2=O)cc(Cl)c1O | 11.3%
CC1CCN(Cc2nnnn2CCCC(=O)N(C)C(C)c2ccccn2)CC1 (stereo not drawn) | 6.32%
COc1ccc(OC)c(NC(=O)Cn2cccc2)c1 | -14.1%
CCCn1cc(SCC(=O)NCc2ccco2)c2ccccc21 | -25.9%
CCOC(=O)Cc1c(C)c2c(C)[nH]nc2oc1=O | -12.1%
Cn1c(N)c(C(=O)CSc2ncn[nH]2)c(=O)n(C)c1=O | 18.8%
COc1ccc(/C=C(\NC(=O)c2ccc(OC)cc2)C(=O)Nc2ccc(C(=O)O)cc2)cc1 | 9.17%
CC1(C)CC(=O)C2=C(C1)NC(=O)NC2c1ccc([N+](=O)[O-])cc1 (stereo not drawn) | 16%
CCOc1ccc(C(=O)NCC(=O)OCCCOC(=O)CNC(=O)c2ccc(OCC)cc2)cc1 | 8.79%
CCN(C(=O)c1cnc2scc(C)n2c1=O)c1ccccc1C | 5.18%
CCCCOC(=O)c1cc(=O)[nH]c2ccccc12 | -14.4%
Cc1cc(SCC(=O)[O-])nc2ccccc12 | 12.3%
O=C(Nc1c(C(=O)N2CCOCC2)oc2ccccc12)c1cccc([N+](=O)[O-])c1 | -20.2%
Cn1c(=O)[nH]c(=O)c2c1nc(N1CCCC1)n2CCO | 12%
Cc1ccc(/C=C/C(=O)OCC(=O)NC(=O)NCc2ccccc2)cc1 | 15.7%
CN(C)c1nc(N)c([N+](=O)[O-])c(N2CCCCCC2)n1 | 2.69%
CCc1nc2ccccc2n(CC)c1=O | 16.3%
CC(NC(=O)c1cc2c(=O)n3ccccc3nc2n(CC2CCCO2)c1=N)c1ccccc1 (stereo not drawn) | -75.2%
